Assay results from PubChem BioAssay (Tox21).
Values joined by “and” are separate entries in the source; they are usually repeats but may differ in a detail not shown here. Identical values can stand only once. The shares of active, inactive and inconclusive entries below differ from those in the screen. For part of these data: Potencies beside an inconclusive call are fits to weak or partial responses and may not hold up. Active and inactive are the calls of the source. Unless noted, the call rests on the fitted dose curve; in most records, active means well fitted curve in the direction sought with a large enough effect in the repeat runs; inconclusive means weak or mixed curves; inactive means no such curve, though single readings can be large; an effect the other way counts as inactive or inconclusive.

Key:
[1] = biological target: Peroxisome proliferator-activated receptor gamma (Homo sapiens) (UniProt P37231); experiment: qHTS assay to identify small molecule antagonists of the peroxisome proliferator-activated receptor gamma (PPARg) signaling pathway (AID 743191; calls by dose curve; further: on the % scale 0 is the no-effect control and ±100 the full control effect; nearly all actives have a fitted effect of over 30% in size); settings: HEK293H PPARg-UAS-bla, beta-lactamase ratio, antagonist, 17 h; ratio activity, negative = inhibition: at 62.6 µM (top of the series) unless noted
Sequence of UniProt P37231 (P37231 whole entry, looked up): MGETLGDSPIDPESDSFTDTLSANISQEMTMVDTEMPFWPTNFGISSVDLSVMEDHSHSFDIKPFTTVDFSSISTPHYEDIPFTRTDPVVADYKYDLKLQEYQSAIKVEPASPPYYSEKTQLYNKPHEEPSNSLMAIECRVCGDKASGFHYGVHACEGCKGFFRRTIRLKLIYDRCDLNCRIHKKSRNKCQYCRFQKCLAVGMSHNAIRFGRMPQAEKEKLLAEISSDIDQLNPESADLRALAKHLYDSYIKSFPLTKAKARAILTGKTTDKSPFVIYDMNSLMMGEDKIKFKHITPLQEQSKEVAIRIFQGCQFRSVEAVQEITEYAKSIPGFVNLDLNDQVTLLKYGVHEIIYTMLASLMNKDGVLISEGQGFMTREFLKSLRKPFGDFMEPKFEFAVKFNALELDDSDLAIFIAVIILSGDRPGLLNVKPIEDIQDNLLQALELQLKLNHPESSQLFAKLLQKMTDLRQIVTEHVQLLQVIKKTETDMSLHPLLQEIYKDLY
Procedure, shortened: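 GeneBLAzer PPARg UAS-bla HEK293H cells, 5 h post-plating, exposed to compounds 17 h at 37C. LiveBLAzer B/G FRET substrate added for 1 h at room temperature; beta-lactamase reporter read by fluorescence intensity.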

[2] = biological target: Peroxisome proliferator-activated receptor delta (Homo sapiens) (UniProt Q03181); experiment: qHTS assay to identify small molecule antagonists of the peroxisome proliferator-activated receptor delta (PPARd) signaling pathway (AID 743215; active means well fitted inhibition curve with a large enough effect in the signal ratio in the repeat runs, not every such curve was filed as active; inconclusive means weak or mixed curves, or effect the other way; inactive means no such curve, though single readings can be large or run the other way; the % refers to the signal ratio;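 further: cells stimulated with agonist L165041 at 300 nM final during compound exposure; on the % scale 0 is the no-effect control and ±100 the full control effect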); settings: HEK293H PPARd-UAS-bla, beta-lactamase FRET ratio, antagonist, 17 h; ratio activity, negative = inhibition: at 62 µM (top of the series) unless noted
Sequence of UniProt Q03181 (Q03181 whole entry, looked up): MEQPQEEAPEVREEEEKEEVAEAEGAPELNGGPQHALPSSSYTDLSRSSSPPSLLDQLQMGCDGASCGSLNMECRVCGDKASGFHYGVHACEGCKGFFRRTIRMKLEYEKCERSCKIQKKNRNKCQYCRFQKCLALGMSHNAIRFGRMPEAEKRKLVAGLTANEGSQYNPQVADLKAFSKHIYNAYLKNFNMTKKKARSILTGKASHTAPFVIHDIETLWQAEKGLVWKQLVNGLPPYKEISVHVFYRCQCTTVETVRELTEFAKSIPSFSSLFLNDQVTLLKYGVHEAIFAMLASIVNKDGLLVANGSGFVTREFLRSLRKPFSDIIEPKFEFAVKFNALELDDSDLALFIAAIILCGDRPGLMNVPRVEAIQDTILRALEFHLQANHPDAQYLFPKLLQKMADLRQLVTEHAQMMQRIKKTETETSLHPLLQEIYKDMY
Procedure, shortened: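 PPARd UAS-bla HEK293H cells were pre-incubated 5 h at 37 C, then given test compounds in DMSO plus agonist L165041 (300 nM final). After 17 h at 37 C, beta-lactamase FRET substrate was added; fluorescence read after 2 h at room temperature.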

[3] = biological target: Vitamin D3 receptor (Homo sapiens) (UniProt P11473); experiment: qHTS assay to identify small molecule antagonists of the vitamin D receptor (VDR) signaling pathway (AID 743223; active means well fitted inhibition curve with a large enough effect in the signal ratio in the repeat runs, not every such curve was filed as active; inconclusive means weak or mixed curves, or effect the other way; inactive means no such curve, though single readings can be large or run the other way; the % refers to the signal ratio; further: potency means the concentration at half of the fitted maximal effect; on activity change, negative = inhibition: on the % scale 0 is the no-effect control and ±100 the full control effect); settings: VDR-UAS-bla HEK293T, beta-lactamase FRET ratio, 16 h; activity change, negative = inhibition: at 61 µM (top of the series) unless noted
Sequence of UniProt P11473 (P11473 whole entry, looked up): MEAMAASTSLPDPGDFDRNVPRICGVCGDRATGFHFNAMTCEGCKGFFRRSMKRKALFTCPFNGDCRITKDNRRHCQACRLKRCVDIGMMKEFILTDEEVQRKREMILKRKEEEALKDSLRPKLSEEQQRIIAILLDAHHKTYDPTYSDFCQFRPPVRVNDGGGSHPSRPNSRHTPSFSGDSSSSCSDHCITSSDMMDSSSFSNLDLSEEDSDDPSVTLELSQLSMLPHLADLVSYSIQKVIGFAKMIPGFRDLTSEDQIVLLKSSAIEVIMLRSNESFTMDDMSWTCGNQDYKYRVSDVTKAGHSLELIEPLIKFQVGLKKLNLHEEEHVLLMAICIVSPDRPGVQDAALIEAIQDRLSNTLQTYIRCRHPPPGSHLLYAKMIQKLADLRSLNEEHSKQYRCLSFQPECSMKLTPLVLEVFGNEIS
Procedure, shortened: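 Reporter line VDR-bla; stimulus 1alpha,25-(OH)2 vitamin D3, 3 nM final; compound co-addition, 16 h 37C/5% CO2; LiveBLAzer B/G substrate 2 h RT; fluorescence intensity.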

[4] = biological target: Peroxisome proliferator-activated receptor delta (Homo sapiens) (UniProt Q03181); experiment: qHTS assay to identify small molecule agonists of the peroxisome proliferator-activated receptor delta (PPARd) signaling pathway (AID 743212; calls by dose curve; further: on the % scale 0 is the no-effect control and ±100 the full control effect); settings: HEK293H PPARd-UAS-bla, beta-lactamase FRET ratio, 17 h; activation: at 62.6 µM (top of the series) unless noted
Procedure, shortened: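 GeneBLAzer UAS-bla HEK293H cells carrying a PPARδ construct were exposed to compounds at 37 °C. Beta-lactamase activity was read by FRET fluorescence after 2 h at room temperature with LiveBLAzer B/G substrate.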

[5] = qHTS assay to identify small molecule antagonists of the farnesoid-X-receptor (FXR) signaling pathway - cell viability counter screen (AID 743221; active means well fitted cell-killing curve with a large enough effect in the repeat runs, not every such curve was filed as active; inconclusive means weak or mixed curves, or effect the other way; inactive means no such curve, though single readings can be large or run the other way; further: nearly all actives have a fitted effect of over 50% in size; further: potency means the concentration at half of the fitted maximal effect); settings: FXR-bla HEK293T viability, CellTiter-Glo luminescence, 16 h; activity change, negative = cytotoxicity: at 62.6 µM (top of the series) unless noted
Procedure, shortened: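 After a 5 h settling period, FXR-bla HEK 293T cells receive compound and chenodeoxycholic acid (50 uM final) and incubate 16 h at 37 C; CellTiter-Glo luminescence, read after 30 min at room temperature, reports cell viability.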

[6] = qHTS assay to identify small molecule antagonists of the peroxisome proliferator-activated receptor gamma (PPARg) signaling pathway - cell viability counter screen (AID 743194); settings: PPARg-bla HEK293H viability, CellTiter-Glo luminescence, 17 h, co-treated with 50 nM rosiglitazone; activity change, negative = cytotoxicity: at 62.6 µM (top of the series) unless noted; further: nearly all actives have a fitted effect of over 55% in size; further: potency means the concentration at half of the fitted maximal effect
Procedure, shortened: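 Cytotoxicity counter screen in PPARg-bla HEK293H cells, same wells as reporter assay. Compounds plus 50 nM rosiglitazone (final) for 17 h at 37 C, then viability read by CellTiter-Glo luminescence.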

[7] = qHTS assay for small molecule agonists of the antioxidant response element (ARE) signaling pathway (AID 743202; active means well fitted activation curve with a large enough effect in the signal ratio in the repeat runs, not every such curve was filed as active; inconclusive means weak or mixed curves, or effect the other way; inactive means no such curve, though single readings can be large or run the other way; the % refers to the signal ratio; further: potency means the concentration at half of the fitted maximal effect); settings: HepG2 ARE-bla reporter, beta-lactamase FRET, 16 h; activation: at 73.3 µM (top of the series) unless noted
Procedure, shortened: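 ARE-bla HepG2 cells (beta-lactamase reporter under the antioxidant response element), plated 5 hours, then exposed to compounds 16 hours at 37 C. LiveBLAzer B/G FRET substrate added for 2 hours at room temperature; fluorescence intensity read.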

[8] = qHTS assay to identify small molecule antagonists of the peroxisome proliferator-activated receptor delta (PPARd) signaling pathway - cell viability counter screen (AID 743213); settings: PPARd-bla HEK293H viability, CellTiter-Glo luminescence, 17 h; viability change, negative = cytotoxic: at 62 µM (top of the series) unless noted; further: potency means the concentration at half of the fitted maximal effect; nearly all actives have a fitted effect of over 50% in size
Procedure, shortened: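 In this counter screen, HEK293H cells carrying a UAS-beta-lactamase reporter are co-treated with test compounds and 300 nM L165041 (final) for 17 h at 37 C; cell viability is quantified by CellTiter-Glo luminescence.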

[9] = qHTS assay to identify small molecule agonists of the vitamin D receptor (VDR) signaling pathway - cell viability counter screen (AID 743224); settings: VDR-bla HEK293T viability, CellTiter-Glo luminescence, 16 h; activity change, negative = cytotoxicity: at 62.6 µM (top of the series); further: potency means the concentration at half of the fitted maximal effect; nearly all actives have a fitted effect of over 50% in size
Procedure, shortened: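 VDR-bla cells were preincubated 4 h at 37C/5% CO2, then exposed to compounds for 16 h. After the 2 h room-temperature bla FRET read, CellTiter-Glo was added to the same wells and luminescence read after 30 min.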

[10] = qHTS assay for small molecule activators of the heat shock response signaling pathway - cell viability counter screen (AID 743209); settings: HSE-bla HeLa viability, CellTiter-Glo luminescence, 5 h; activity change, negative = cytotoxicity: at 62.6 µM (top of the series) unless noted; further: nearly all actives have a fitted effect of over 50% in size; further: potency means the concentration at half of the fitted maximal effect
Procedure, shortened: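 CellSensor HSE-bla HeLa cells, plated overnight at 37 C/5% CO2, were exposed to compounds in DMSO for 5 h at 37 C. Viability was then read in the same wells by CellTiter-Glo luminescence after 30 min at room temperature.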

[11] = qHTS assay to identify small molecule agonists of the peroxisome proliferator-activated receptor delta (PPARd) signaling pathway - cell viability counter screen (AID 743211); settings: PPARd-bla HEK293H viability, CellTiter-Glo luminescence, 17 h; activity change, negative = cytotoxicity: at 62.6 µM (top of the series) unless noted; further: potency means the concentration at half of the fitted maximal effect; nearly all actives have a fitted effect of over 55% in size
Procedure, shortened: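 qHTS cell viability: PPARd-bla HEK293H; 17 h cpd, 37C; CellTiter-Glo, luminescence at 30 min RT.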

[12] = qHTS assay to identify small molecule agonists of the farnesoid-X-receptor (FXR) signaling pathway - cell viability counter screen (AID 743218); settings: FXR-bla HEK293T viability, CellTiter-Glo luminescence, 16 h; viability change, negative = cytotoxic: at 62.6 µM (top of the series) unless noted; further: potency means the concentration at half of the fitted maximal effect; nearly all actives have a fitted effect of over 45% in size
Procedure, shortened: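 FXR-UAS-bla HEK 293T cells, plated 5 h at 37 C, were exposed to compounds for 16 h at 37 C. CellTiter-Glo was then added to the same wells as the bla readout; luminescence read after 30 min at room temperature.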

[13] = biological target: Bile acid receptor (Homo sapiens) (UniProt Q96RI1); experiment: qHTS assay to identify small molecule antagonists of the farnesoid-X-receptor (FXR) signaling pathway (AID 743217; active means well fitted inhibition curve with a large enough effect in the signal ratio in the repeat runs, not every such curve was filed as active; inconclusive means weak or mixed curves, or effect the other way; inactive means no such curve, though single readings can be large or run the other way; the % refers to the signal ratio; further: on the % scale 0 is the no-effect control and ±100 the full control effect); settings: HEK293T FXR-UAS-bla, beta-lactamase ratio, CDCA-stimulated, 16 h; activity change, negative = inhibition: at 62.6 µM (top of the series) unless noted
Sequence of UniProt Q96RI1 (Q96RI1 whole entry, looked up): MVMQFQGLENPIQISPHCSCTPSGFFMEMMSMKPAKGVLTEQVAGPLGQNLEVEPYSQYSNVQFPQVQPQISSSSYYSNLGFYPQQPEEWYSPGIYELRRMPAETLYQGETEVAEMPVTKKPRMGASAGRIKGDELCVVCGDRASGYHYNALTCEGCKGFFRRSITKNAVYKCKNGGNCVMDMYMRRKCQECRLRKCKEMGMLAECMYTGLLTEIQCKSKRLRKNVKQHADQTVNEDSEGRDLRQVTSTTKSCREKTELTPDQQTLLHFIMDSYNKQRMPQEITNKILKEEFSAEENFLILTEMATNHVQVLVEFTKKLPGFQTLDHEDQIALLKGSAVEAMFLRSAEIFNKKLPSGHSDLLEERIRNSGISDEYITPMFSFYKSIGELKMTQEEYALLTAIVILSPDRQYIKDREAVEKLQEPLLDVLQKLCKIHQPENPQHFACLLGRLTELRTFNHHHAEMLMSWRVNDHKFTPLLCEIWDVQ
Procedure, shortened: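 FXR-UAS-bla HEK 293T cells pre-incubated 5 h at 37 °C, then exposed to compounds with chenodeoxycholic acid (50 uM final) for 16 h at 37 °C. Beta-lactamase reporter read by LiveBLAzer B/G FRET substrate fluorescence after 2 h at room temperature.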

[14] = qHTS assay for small molecule agonists of the antioxidant response element (ARE) signaling pathway - cell viability counter screen (AID 743203; calls by dose curve; further: potency means the concentration at half of the fitted maximal effect; nearly all actives have a fitted effect of over 55% in size); settings: ARE-bla HepG2 viability, CellTiter-Glo luminescence, 16 h; viability change, negative = cytotoxic: at 73.3 µM (top of the series)
Procedure, shortened: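 CellSensor ARE-bla HepG2 cells, 2,000 per well, rested 5 hrs at 37C/5% CO2, then exposed to compound in DMSO for 16 hrs; viability read as CellTiter-Glo luminescence after 30 min at room temperature, in the reporter wells.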

[15] = qHTS assay for small molecule activators of the heat shock response signaling pathway (AID 743210; active means well fitted activation curve with a large enough effect in the signal ratio in the repeat runs, with a control signal flat, not every such curve was filed as active; inconclusive means weak or mixed curves; the % refers to the signal ratio; further: potency means the concentration at half of the fitted maximal effect); settings: HeLa HSE-bla reporter, beta-lactamase ratio, 5 h; activation: at 62.6 µM (top of the series) unless noted
Procedure, shortened: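 HSE-bla HeLa cells (beta-lactamase reporter under heat shock response elements), plated overnight, then exposed to compounds 5 h at 37 C; LiveBLAzer B/G FRET substrate added, 2.5 h at room temperature, fluorescence intensity read.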
Tags describe the fitted curve by direction and shape or compound fluorescence and quenching.

CC[C@@]1(c2ccccc2)NC(=O)N(C)C1=O
Potency [1]: inactive | ratio activity, negative = inhibition [2]: inconclusive: 11.2% | activity change, negative = inhibition [3]: inconclusive: 4.66%

CC(=O)OCCOCCOCCOC(C)=O
ratio activity, negative = inhibition [1]: inconclusive: 8.38% | Potency [4]: inactive | Potency [5]: inactive | Potency [3]: inactive

COC(CC(C)CCCC(C)(C)O)OC (centres undefined)
ratio activity, negative = inhibition [1]: inconclusive: -50% | Potency [3]: inconclusive: 30.9 µM [activator, partial curve, poor fit]

CCCCCCCC(=O)[O-].CCCCCCCC(=O)[O-].[Zn+2]
Potency [1]: inactive | activity change, negative = inhibition [3]: inconclusive: 2.99%

COc1c(Cl)c(Cl)c(Cl)c(Cl)c1Cl
Potency [6]: inactive | Potency [7]: inactive

COC(=O)c1ccccc1C(=O)O
ratio activity, negative = inhibition [1]: inconclusive: 6.32% | Potency [8]: inconclusive: 77.6 nM [cytotoxic, full curve, poor fit] | Potency [9]: inconclusive: 21.9 µM [cytotoxic, single point]

CC[N+](C)(CC)CCOC(=O)C1c2ccccc2Oc2ccccc21
Potency [1]: inactive | Potency [5]: inactive | Potency [3]: inactive

NCCO
Potency [6]: inconclusive: 0.0692 µM [cytotoxic, full curve, poor fit] | Potency [7]: inconclusive: 38.6 µM [phenotype inactive, partial curve] | Potency [10]: inactive and inconclusive: 30.9 µM [cytotoxic, partial curve] | Potency [11]: inconclusive: 61.7 µM [cytotoxic, single point] | Potency [8]: inconclusive: 5450 nM [cytotoxic, single point] | Potency [12]: inconclusive: 1.95 µM [rising, full curve, poor fit] | activity change, negative = cytotoxicity [5]: inconclusive: 8.43% [phenotype inactive] | Potency [9]: inconclusive: 61.7 µM [cytotoxic, single point]

CCC(O)C(C)(C)C (centres undefined)
Potency [1]: inactive | Potency [2]: inactive | activity change, negative = inhibition [13]: inconclusive: 4.64% [at 81.1 µM] | Potency [12]: inconclusive: 0.284 µM [rising, partial curve, poor fit]

Cc1cc(C2CCCCC2)n(O)c(=O)c1
Potency [6]: inconclusive: 8.41 µM [cytotoxic, full curve] | Potency [7]: inconclusive: 1.68 µM [rising, full curve, poor fit] | Potency [14]: inconclusive: 2.37 µM [cytotoxic, full curve, poor fit] | Potency [10]: inactive | Potency [15]: inconclusive: 6.43 µM | Potency [12]: inconclusive: 15 µM [cytotoxic, full curve] | Potency [5]: inconclusive: 33.5 µM [falling, single point] | Potency [9]: active: 18.8 µM
